Tests used:
human netrin-1 = biological target: T1, human netrin-1 (human, UniProt O95631 25-604); assay: SPR, Biacore T100, 25 C; Fn5 variant 1 captured by anti-human IgG on CM5 chip, netrin-1 as analyte
T1 construct: also called human netrin-1, Alexis 522-100-0000; human metrin-1 Netris Pharma
Description: (§1) DCC-fusion protein (Fn5 variant 1; SEQ ID NO: 3) was captured via amine coupled capture molecules. A series with increasing concentrations of netrin-1 was injected.
(§2) Classical concentration series were measured at a flow rate of 50 μL/min by sequential injection of the analyte in 5 or 6 increasing concentrations between c=400-1 nM. The analyte was injected for 3 minutes followed by a dissociation phase of 20 minutes. Various netrin-1 samples from different manufacturers were used for the measurements (human netrin-1, Alexis 522-100-0000/human metrin-1 Netris Pharma/chicken netrin-1, Alexis 522-106-2010).
(§3) Kinetic parameters were calculated by using the usual double referencing (control reference: binding of analyte to capture molecule; Flow Cell: netrin-1 concentration “0” as Blank) and calculation with model ‘titration kinetics 1:1 binding.

chicken netrin-1 = chicken netrin-1 (chicken, UniProt Q90922); assay: as above
Description: as §1, §2, §3

B1: DCC-fusion protein (Fn5-Fc (IgG1) fusion protein; Fn5 variant 1), mature form (Fc fusion)
chain: STPMLPPVGVQAVALTHDAVRVSWADNSVPKNQKTSEVRLYTVRWRTSFSASAKYKSEDTTSLSYTATGLKPNTMYEFSVMVTKNRRSSTWSMTAHATTYEA[human IgG1 Fc omitted]
notes: Expressed in HEK293-Freestyle cells and purified by protein A and SEC; also called Fn5-Fc fusion protein
B1 showed a koff (human netrin-1) of 0.00057 s⁻¹, a kon (human netrin-1) of 300000 M⁻¹ s⁻¹ and a Kd (chicken netrin-1) of 1.6 nM. It also gave a koff (chicken netrin-1) of 0.00013 s⁻¹ and a kon (chicken netrin-1) of 79000 M⁻¹ s⁻¹.

From patent US20130336972A1 (published 2013)
